PubChem BioAssay AID463173 (ICCB-Longwood Screening Facility, Harvard Medical School, 2010)
The campaign covered roughly 52,000 compounds. About 1,700 (3.3%) were called active. Rule as the data show it: active = survival mostly below about 52% (no sharp cut-off); inactive = mostly above about 56%. Some of the results follow.

tested on: Wild type; experiment: S. aureus survival, RN4220 and DeltatarO strains – OD600, teichoic acid synthesis inhibitors, primary screen (AID 463173); conditions: S. aureus RN4220 wild type/DeltatarO growth, OD600, 18 h, hits give low values, screened at 18.75 µg/mL (by protocol)

Question: For CCOC(=O)c1ccc(N2C(=O)c3n[nH]c(-c4ccco4)c3C2c2ccc(O)c(OC)c2)cc1 (stereo not given), which survival is on record?
Answer: Its survival is inactive: 124%.

Question: With CCC(=O)N1c2ccccc2CC1C(=O)NCCc1ccc(C)cc1 (stereo not given) as the compound, how does the survival read?
Answer: The survival was inactive: 83%.

Question: Which survival does the source give for Cc1ccc(CNC(=O)c2nn(C)c3c2CS(=O)(=O)c2ccccc2-3)cc1 here?
Answer: The survival was inactive: 87%.

Question: With CCC(C)OC(=O)/C(C#N)=C\c1ccc(-c2ccccc2Cl)o1 (stereo not given) as the compound, how does the survival read?
Answer: The survival was inactive: 66%.

Question: For O=C(Nc1nc2nc(-c3ccccc3)cc(=O)n2[nH]1)c1ccc(Cl)cc1, which survival is on record?
Answer: The survival was inactive: 88%.

Question: With CNC(=O)COc1ccc(NC(=O)CCn2nc(-c3ccc(C)cc3)c3ccccc3c2=O)cc1 as the compound, how does the survival read?
Answer: Its survival is inactive: 68%.

Question: With O=C(CSCc1nc2cccnc2n1C1CCCCC1)NCc1cccc(Cl)c1 as the compound, how does the survival read?
Answer: Its survival is inactive: 124%.

Question: COc1ccc(-n2nc(C(=O)N3CCN(c4cccc(C)c4C)CC3)c3c4ccccc4n(C)c3c2=O)cc1 was tested. Which survival did it give?
Answer: The survival was inactive: 126%.

Question: How did the survival turn out when CC1=C(c2ccc(C(C)C)cc2)S(=O)(=O)NC1=NCc1ccccc1Br was run?
Answer: The survival was inactive: 82%.

Question: Which survival does the source give for CCOc1ccc(N(CC(=O)NCc2ccc(C)cc2)S(=O)(=O)c2c(C)noc2C)cc1 here?
Answer: Its survival is inactive: 86%.

Question: O=C(c1ccc(CSc2nc3ccncc3n2Cc2cccc(F)c2)cc1)N1CCCCC1 was tested. Which survival did it give?
Answer: The survival was inactive: 76%.

Question: O=C(NCc1ccco1)C(c1ccco1)N(C(=O)Cn1nnc2ccccc21)c1ccccc1 (stereo not given) was tested. Which survival did it give?
Answer: The survival was inactive: 111%.

Question: For Cc1cccc(NC(=O)Cn2c(=O)nc(-c3ccccc3)c3ccccc32)c1C, which survival is on record?
Answer: The survival was inactive: 74%.

Question: Which survival does the source give for COC(=O)CSc1nc2cc3c(cc2cc1C#N)OCO3 here?
Answer: Its survival is inactive: 98%.

Question: For CNC(=O)C1CCC(Cn2c(=O)c3sccc3n(CC(=O)Nc3ccc(C)c(F)c3)c2=O)CC1 (stereo not given), which survival is on record?
Answer: The survival was inactive: 66%.

Question: Which survival does the source give for CCOC(=O)c1c(C)[nH]c(C)c1S(=O)(=O)N1CCC(C(=O)Nc2ccc(C)cn2)CC1 here?
Answer: Its survival is inactive: 81%.

Question: CCOc1ccc(CCNC(=O)Cn2ncc3c(=O)oc4ccc(C)cc4c32)cc1 was tested. Which survival did it give?
Answer: Its survival is inactive: 80%.

Question: For CCn1c2ccccc2c2cc(NC(=O)COc3cccc(C)c3)ccc21, which survival is on record?
Answer: Its survival is inactive: 34%.

Question: How did the survival turn out when CCOc1cc2[nH]c(=O)n(CCCC(=O)N3CCN(c4ccc(OC)cc4)CC3)c(=O)c2cc1OCC was run?
Answer: Its survival is inactive: 86%.

Question: Which survival does the source give for COc1ccc(C)cc1NC(=O)C1CCCN(S(=O)(=O)c2ccc3[nH]c(=O)ccc3c2)C1 (stereo not given) here?
Answer: The survival was inactive: 93%.

Question: With O=C(COc1ccc2ccccc2c1)Nc1ccc(NC(=O)c2ccco2)cc1 as the compound, how does the survival read?
Answer: Its survival is inactive: 108%.

Question: Which survival does the source give for COc1cc(NC(=O)CN2C(=O)CN(C)C(=O)c3ccccc32)cc(OC)c1OC here?
Answer: Its survival is inactive: 129%.

Question: Which survival does the source give for CCCCN1CC(c2nc3ccccc3n2CCCCOc2ccc(C)c(C)c2)CC1=O (stereo not given) here?
Answer: The survival was inactive: 24%.

Question: How did the survival turn out when COc1ccc(OC)c(NS(=O)(=O)c2ccc3[nH]c4c(c3c2)CCCCC4)c1 was run?
Answer: The survival was inactive: 85%.

Question: Which survival does the source give for Cc1ccc(F)c(NC(=O)Nc2ccc3snnc3c2)c1 here?
Answer: The survival was inactive: 117%.

Question: Which survival does the source give for O=C1c2[nH]nc(-c3ccccc3O)c2C(c2cccc(Cl)c2)N1Cc1cccnc1 (stereo not given) here?
Answer: Its survival is inactive: 63%.

Question: For O=C(N/N=C/C=C/c1ccco1)c1ccccc1F, which survival is on record?
Answer: Its survival is inactive: 105%.

Question: For O=C(/C=C/c1ccco1)ON1C(=O)c2ccccc2C1=O, which survival is on record?
Answer: Its survival is inactive: 117%.

Question: With CCOc1ccc(CCNC(=O)c2cn(CC)c3ccc(S(=O)(=O)N4CCCCCC4)cc3c2=O)cc1OCC as the compound, how does the survival read?
Answer: The survival was inactive: 83%.

Question: For CC(=O)N1CCCc2cc(S(=O)(=O)N(C)CC(=O)Nc3cccc(C)c3C)ccc21, which survival is on record?
Answer: Its survival is inactive: 73%.

Question: Cc1cccc(CNC(=O)Cn2ccc3cc(S(=O)(=O)N4CCCC4)ccc32)c1 was tested. Which survival did it give?
Answer: The survival was inactive: 69%.

Question: With O=C(NCCN1CCN(c2cccc(Cl)c2)CC1)C1COc2ccccc2C1 (stereo not given) as the compound, how does the survival read?
Answer: Its survival is inactive: 87%.

Question: With CN(C)S(=O)(=O)c1ccc(C(=O)NC2CC(=O)N(c3ccc4c(c3)OCCO4)C2)cc1 (stereo not given) as the compound, how does the survival read?
Answer: The survival was inactive: 64%.

Question: For CCOC(=O)c1cc(-c2ccc(C)cc2)n(CCC(=O)Nc2ccc(C(C)C)cc2)c1C, which survival is on record?
Answer: The survival was inactive: 95%.

Question: With Cc1cccc(NC(=O)CS(=O)(=O)c2nc(-c3ccccc3)cn2-c2cccc(Cl)c2)c1C as the compound, how does the survival read?
Answer: The survival was inactive: 89%.

Question: For C[n+]1ccn(CC(=O)c2ccccc2)c1, which survival is on record?
Answer: The survival was inactive: 101%.

Question: COc1cc(C2C(C(=O)Nc3ccc(C)cc3C)=C(C)Nc3nc4ccccc4n32)cc(OC)c1OC (stereo not given) was tested. Which survival did it give?
Answer: Its survival is inactive: 73%.

Question: Which survival does the source give for Cc1cccc(NC(=O)Cn2nnc(C(=O)Nc3ccccc3Br)c2N)c1C here?
Answer: The survival was active: 0%.

Question: With Cn1cc(C(=O)NCc2ccccc2)c(=O)c2cc(S(=O)(=O)N3CCOCC3)ccc21 as the compound, how does the survival read?
Answer: Its survival is inactive: 80%.

Question: Which survival does the source give for CC(C)C(c1nnnn1CCc1ccccc1)N(Cc1ccco1)Cc1ccccc1Cl (stereo not given) here?
Answer: Its survival is inactive: 121%.

Question: With O=C(NC1CC(=O)N(c2ccc(Cl)cc2)C1)c1ccc2c(c1)OCO2 (stereo not given) as the compound, how does the survival read?
Answer: Its survival is inactive: 68%.

Question: How did the survival turn out when COc1cccc(-c2nc(CS(=O)(=O)CC(=O)Nc3c(C)cc(C)cc3C)c(C)o2)c1 was run?
Answer: The survival was inactive: 99%.

Question: Which survival does the source give for COc1cccc(N2CCN(C(=O)C3CCN(S(=O)(=O)c4c(C)noc4C)CC3)CC2)c1 here?
Answer: The survival was inactive: 87%.

Question: Which survival does the source give for CSc1ccc(CCNC(=O)CN2C(=O)c3cccnc3Oc3ccc(C)cc32)cc1 here?
Answer: Its survival is inactive: 73%.

Question: For COc1cccc(C(O)C(F)(F)F)c1 (stereo not given), which survival is on record?
Answer: The survival was inactive: 112%.

Question: For N=c1n(CCN2CCCCC2)c2ccccc2n1CC(O)COc1ccc(Cl)cc1Cl (stereo not given), which survival is on record?
Answer: The survival was active: -3%.

Question: Cc1ccc2c(=O)cc(C(=O)N(Cc3ccc(N(C)C)cc3)C3CCS(=O)(=O)C3)oc2c1 (stereo not given) was tested. Which survival did it give?
Answer: Its survival is inactive: 111%.

Question: With CCCN1CCN(CCCNC(=O)Cn2nc(CC)n3c(cc4occc43)c2=O)CC1 as the compound, how does the survival read?
Answer: Its survival is inactive: 122%.

Question: Cc1cc(NC(=O)N(C)CCc2c(C)nn(C)c2C)ccc1Br was tested. Which survival did it give?
Answer: Its survival is inactive: 67%.

Question: With CC1(C)O[C@H]2[C@@H](O1)[C@@H](C(=O)Nc1ccc(F)c(F)c1)O[C@@H]1OC(C)(C)O[C@@H]12 as the compound, how does the survival read?
Answer: Its survival is inactive: 106%.

Question: COc1ccc(Cn2c(SCc3ccc(C(=O)NCc4cccs4)cc3)nc3cccnc32)cc1 was tested. Which survival did it give?
Answer: Its survival is inactive: 75%.

Question: Which survival does the source give for CCc1cccc(C)c1NC(=O)CSc1nc2ccccc2nc1N1CCOCC1 here?
Answer: The survival was inactive: 75%.

Question: Which survival does the source give for COc1ccccc1CN1C(=O)CN(C2CCCCCC2)C(=O)C1c1ccc(C)cc1 (stereo not given) here?
Answer: Its survival is inactive: 92%.

Question: With Cc1cc(F)ccc1NS(=O)(=O)c1c(C)nc2scc(C)n2c1=O as the compound, how does the survival read?
Answer: Its survival is inactive: 73%.

Question: For Fc1ccc(Nc2ncnc3onc(-c4ccc(Cl)cc4)c23)cc1Cl, which survival is on record?
Answer: Its survival is inactive: 71%.
